Data as given in PubChem BioAssay AID485344 (National Center for Advancing Translational Sciences (NCATS), 2010).
Among all 340,000 compounds or so, about 6,900 (2%) were called active. Cut-off read from the data, not from the text of the source: active = inhibition above about 30%; inactive = below that, where a call was filed. The entries are a selection whose mix differs from that of the whole data set. Entries without a call were filed so in the source.

biological target: D(2) dopamine receptor (Homo sapiens) (UniProt P14416); assay: HTS Assay for Allosteric Antagonists of the Human D2 Dopamine Receptor: Primary Screen for Antagonists; conditions: HEK293 TREx D2 cells, calcium flux, dopamine EC80; at 10 µM; stronger effect = higher value; note: 0% is about no effect
In short: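 Antagonism is scored as inhibition of an EC80 dopamine-evoked calcium signal in a force-coupled, tetracycline-inducible HEK293 T-REx D2 line, with compound present 180 s before agonist.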

Sequence of UniProt P14416 (P14416 whole entry, looked up): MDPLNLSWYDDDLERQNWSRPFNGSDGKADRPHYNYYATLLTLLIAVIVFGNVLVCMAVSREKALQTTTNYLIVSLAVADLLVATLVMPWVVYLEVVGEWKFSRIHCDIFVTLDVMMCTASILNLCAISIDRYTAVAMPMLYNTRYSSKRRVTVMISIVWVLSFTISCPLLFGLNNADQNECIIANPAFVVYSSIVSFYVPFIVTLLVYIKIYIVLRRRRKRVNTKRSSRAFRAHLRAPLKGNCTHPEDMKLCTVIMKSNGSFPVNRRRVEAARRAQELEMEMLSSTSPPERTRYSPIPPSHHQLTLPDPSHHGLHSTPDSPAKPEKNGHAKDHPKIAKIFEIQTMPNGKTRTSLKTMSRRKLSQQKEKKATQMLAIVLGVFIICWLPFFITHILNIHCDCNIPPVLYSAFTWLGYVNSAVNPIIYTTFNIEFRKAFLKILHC

Row | Structure (SMILES) | inhibition
1 | COc1ccc(NC(=O)C2CCCN(S(=O)(=O)c3ccc4c(c3)CCCC(=O)N4)C2)cc1OC (configuration not stated) | 4.55%
2 | C=CCNc1nc(N2CCOCC2)nc(N2CCOCC2)n1 | active: 31.2%
3 | CCOC(=O)CSc1nc2c([nH]c3ccccc32)c(=O)n1-c1ccc(OC)cc1 | 11.3%
4 | COc1ccc(N(Cc2cccs2)C(=O)c2ccc(Br)o2)cc1 | 1.03%
5 | CCC1CN(C(=O)C2CCN(S(=O)(=O)c3c(C)noc3/C=C/c3ccccc3F)CC2)c2cc(Cl)ccc2O1 (configuration not stated) | -10.8%
6 | CCOc1ccc(/C=C/c2nc(C#N)c(N3CCCCC3)o2)cc1 | -4.58%
7 | Cc1ccc(-c2nc3ccccc3s2)cc1NC(=O)COc1ccccc1 | 9.02%
8 | Cc1ccc(OCC(=O)NCC2(N3CCOCC3)CCCCC2)cc1C | 5.13%
9 | CCOC(=O)c1cccc(NC(=O)CCc2c(C)nn(-c3ccc(N4CCCC4)nn3)c2C)c1 | 18.2%
10 | CCCCN(CCCC)CCNC(=O)c1cn(CC)c2ccc(S(=O)(=O)N3CCc4ccccc4C3)cc2c1=O | 7.3%
11 | CCCN(CCC)CCNC(=O)CN1C(=O)COc2ccc(S(=O)(=O)N3CCC(C)CC3)cc21 | -10.8%
12 | COc1ccc(Nc2ncc(C(=O)Nc3cccc(OC)c3)c3ccccc23)cc1 | -0.483%
13 | Cc1ccc(Cl)cc1N(C)C(=O)c1sc2nc3n(c(=O)c2c1C)CCCC3 | 14.4%
14 | COC(=O)c1cc(NC2(c3ccccc3)C(=O)c3ccccc3C2=O)cc(C(=O)OC)c1 | 6.03%
15 | Cc1ccc(NC(=O)CSc2nc(=O)n(Cc3ccncc3)c3c2CCC3)cc1Cl | -12%
16 | CCOc1cc(CNC(=O)CSc2n[nH]c(-c3ccccc3)n2)cc(OCC)c1OCC | -1.22%
17 | O=C(Nc1ccccc1)C1CCN(S(=O)(=O)c2ccc3c(c2)CCCN3C(=O)C2CCC2)CC1 | 6.1%
18 | COc1ccc(Cn2c(CCC(=O)Nc3cc(C)cc(C)c3)nc3cccnc32)cc1 | -12%
19 | Cc1ccc(CNC(=O)CCCCCn2c(=O)c3sccc3n(CC(=O)C(C)(C)C)c2=O)cc1 | 6.4%
20 | Cc1ccc2c(CN3CCN(c4ccc(Cl)cc4)CC3)cc(=O)oc2c1 | 11.5%
21 | CC(C)c1ccc(NC(=S)NC2CCN(Cc3ccccc3)CC2)cc1 | active: 51.8%

Row | Structure (SMILES) | inhibition
22 | Cc1ccc(SCC(=O)Nc2ccc(O)c(-c3nc4cc(C)ccc4o3)c2)cc1 | -18.5%
23 | Cc1ccc(NC(=O)NC(C)c2c(-n3cccc3)sc(C)c2C)c(C)c1 (configuration not stated) | 1.2%
24 | O=c1[nH]c(=O)n(C2CCCO2)cc1F (configuration not stated) | active: 32.1%
25 | CCOC(=O)CCc1c(C)c2cc3c(c(C)c2oc1=O)OCN(CCc1ccccc1OC)C3 | 16.3%
26 | CCOc1ccc(CCNC(=O)c2ccc3nc(N4CCC(C)CC4)sc3c2)cc1OCC | 0.925%
27 | CCC(C)n1c(=O)c2sccc2n2c(CCCC(=O)Nc3ccc(F)cc3)nnc12 (configuration not stated) | 2.39%
28 | CSc1ncc(Cl)c(C(=O)Nc2c(C(=O)c3ccc(C)cc3)oc3ccccc23)n1 | 2.5%
29 | COc1ccc(C(=O)N(Cc2ccco2)Cc2ccccc2F)cc1Cl | -7.13%
30 | NS(=O)(=O)c1ccc(N2CCN(C(=O)C3COc4ccccc4O3)CC2)nc1 (configuration not stated) | active: 34.8%
31 | O=C(NCC(c1ccco1)S(=O)(=O)c1ccc(Cl)cc1)c1ccc(C(F)(F)F)cc1 (configuration not stated) | 10.6%
32 | COc1cccc(CC(=O)Nc2c(C(=O)N3CCN(c4ccccc4)CC3)oc3ccccc23)c1 | -3.79%
33 | Cc1ccc(Cn2c(SCc3ccc(C(=O)O)cc3)nc3cccnc32)cc1 | 1.61%
34 | O=C(CCC(=O)N1CCOc2ccccc21)NCc1cccs1 | 6.03%
35 | CCN(c1ccccc1)c1ncnc2c1cnn2-c1ccc(OC)cc1 | 5.25%
36 | Cc1ccc2[nH]c3c(=O)n(CC(=O)N4CCN(c5ccccc5F)CC4)ncc3c2c1 | -9.77%
37 | O=S(=O)(NCCc1nnc2ccc(SCc3cccc(Cl)c3)nn12)c1ccccc1 | 1.36%
38 | Cc1cc(N2CCN(C)CC2)nc2ccc(NC(=O)Nc3ccc(F)cc3)cc12 | -5.46%
39 | CC(=O)N1CCCc2cc(S(=O)(=O)N3CCCC(C(=O)Nc4ccc(F)cc4F)C3)ccc21 (configuration not stated) | 20.9%
40 | COc1ccc(Cn2c(CNC(=O)Cc3ccc(OC)c(OC)c3)nc3cccnc32)cc1 | -8.05%
41 | Brc1ccc(-c2cn3cc(Cc4ccccc4)sc3n2)cc1 | 6.53%
42 | CC1CCN(S(=O)(=O)c2ccc3[nH]ccc3c2)CC1 | 7.72%

Row | Structure (SMILES) | inhibition
43 | CCOC(=O)c1ccc(NC(=O)c2noc3c2CCCC3)cc1 | 6.46%
44 | CCOc1ccc(-c2cc3nc(C4CCN(C(=O)OC(C)(C)C)CC4)c(C(=O)Nc4cccc(Cl)c4C)cn3n2)cc1 | 3.72%
45 | O=C1NC(NS(=O)(=O)c2ccccc2)(C(F)(F)F)C(=O)N1CCc1ccccc1 (configuration not stated) | 1.99%
46 | Cn1cc(CCCC(=O)NCc2ccc(F)cc2)c2ccccc21 | 5.31%
47 | CC(C)c1ccc(NC(=O)Cn2nnc(C(=O)NCCc3ccccc3)c2N)cc1 | 5.71%
48 | COc1cc(Cl)c(NC(=O)CN2C(=O)c3cccnc3Sc3ccccc32)c(OC)c1 | -1.66%
49 | COc1ccc(NC(=O)C(Cc2ccccc2)NS(=O)(=O)c2ccc3c(c2)oc(=O)n3C)c(OC)c1 (configuration not stated) | 18.5%
50 | Cc1cccc2nc(-c3ccc(Cl)s3)c(Nc3ccc4c(c3)OCCO4)n12 | -3.92%
51 | Cc1nc(N2CCOCC2)c2c(C(=O)N3CCN(c4cccc(C(F)(F)F)c4)CC3)c(C)oc2n1 | 6.05%
52 | Cc1nc2ccc(S(=O)(=O)NCC(=O)NCc3ccc(Cl)cc3)cc2s1 | 7.24%
53 | COc1ccccc1N1CCN(c2ncc3c(n2)CCN(Cc2ccccc2C)C3)CC1 | 11.5%
54 | Cc1ccc(OCC(=O)OCc2cc(=O)n3ccsc3n2)cc1C | 4.5%
55 | CCOc1ccc(NC(=O)Cn2c(=O)nc(-c3ccccc3)c3ccccc32)cc1 | -28.1%
56 | Cc1ccc(C)c(NC(=O)CSc2cn(CC(=O)N3CCCCC3)c3ccccc23)c1 | 0.189%
57 | COc1ccc(OC(=O)c2cc(-c3ccc4c(c3)OCCO4)on2)cc1 | -19.7%
58 | Cc1ccc2c(CNCCc3ccco3)c(C(=O)O)n(Cc3ccc(F)cc3)c2c1 | 6.58%
59 | CCOc1ccc(CN(CCc2ccc3c(c2)OCO3)Cc2cc(OC)cc(OC)c2)cc1 | 19.1%
60 | COc1ccc(NC(=O)CCCc2nnc3n(C(C)C)c(=O)c4sccc4n23)cc1Cl | 1.14%
61 | Cc1cc(=O)[nH]c2nnc(SCc3cccc(C(F)(F)F)c3)n12 | 15.7%
62 | O=C(CSc1nccn1Cc1ccco1)Nc1ccc(OC(F)(F)F)cc1 | -2.21%
